The results in this text go back to PubChem BioAssay AID360 (National Center for Advancing Translational Sciences (NCATS), 2006).

The campaign covered roughly 48,000 compounds. About 550 (1.1%) were called active. Roughly 4% stayed inconclusive and do not appear here. Rule as the data show it: active = potency below about 15 µM; inconclusive = mostly about 16 µM to 33 µM; inactive = weaker than that. Some of the results follow.
Potency is read from the fitted curve at half-maximal effect.

Sequence of UniProt P04062 (P04062 whole entry, looked up): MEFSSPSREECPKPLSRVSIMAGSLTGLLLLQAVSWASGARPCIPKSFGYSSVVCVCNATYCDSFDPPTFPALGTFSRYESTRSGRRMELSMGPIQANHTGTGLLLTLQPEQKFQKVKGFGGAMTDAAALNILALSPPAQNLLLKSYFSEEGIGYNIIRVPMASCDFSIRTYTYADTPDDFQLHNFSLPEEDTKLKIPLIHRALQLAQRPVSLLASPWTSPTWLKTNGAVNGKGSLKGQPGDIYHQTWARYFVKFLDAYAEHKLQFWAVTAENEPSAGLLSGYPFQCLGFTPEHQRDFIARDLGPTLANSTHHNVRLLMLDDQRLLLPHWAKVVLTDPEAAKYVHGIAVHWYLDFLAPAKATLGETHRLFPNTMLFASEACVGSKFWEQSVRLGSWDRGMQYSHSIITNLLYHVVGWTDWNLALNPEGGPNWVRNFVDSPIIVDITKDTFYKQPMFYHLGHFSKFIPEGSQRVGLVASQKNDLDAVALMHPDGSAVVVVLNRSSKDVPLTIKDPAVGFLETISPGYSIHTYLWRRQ

The target in this assay is Lysosomal acid glucosylceramidase (Homo sapiens) (UniProt P04062). In words: Glucocerebrosidase.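 Also: the screen sought inhibitors.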 The following applies: purified enzyme, resorufin glucoside fluorescence (screen aimed at inhibitors), 20 min. The gist of the method:
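Normal human glucocerebrosidase (0.2 nM final) was assayed with resorufin β-D-glucopyranoside (30 uM final) in 50mM citric acid/KH2PO4, 10mM sodium taurocholate, 0.01% tween-20, pH 5.9. Compounds were titrated; fluorescence (Ex 548, Em 600) read after 20 min at RT.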
In the case of `CCOC(=O)N1CCN(CCC(=O)Nc2ccc(C)c(Br)c2)CC1`, the Potency was inactive: > 76.9 µM. For the compound `CCOC(=O)c1sc(NC(=O)CSc2nnnn2-c2ccccc2)c(C(=O)OCC)c1C`, the Potency was inactive: > 76.9 µM. `O=C(Cn1ccc2ccccc2c1=O)NCCC(=O)N1CCN(C(=O)c2ccco2)CC1`: the Potency is inactive: > 76.9 µM. As to `COc1cc2c(cc1OC)CN(C(=O)c1ccccc1C(=O)O)CC2`, the Potency is inactive: > 76.9 µM.

Take `N#C/C=C1\Sc2ccccc2C(=O)N1CC(=O)N1CCN(S(=O)(=O)c2ccccc2)CC1`: the Potency was inactive: > 76.9 µM. For `CCCCn1c(SCC(=O)Nc2nnc(C(C)C)s2)nc2c1c(=O)n(C)c(=O)n2C` the value was inactive: > 76.9 µM; for `c1ccc(Cn2nnc3cnccc32)cc1`, inactive: > 76.9 µM. For `C=COCCNC(=O)Nc1ccc(Cl)c(Cl)c1`, the Potency is inactive: > 76.9 µM. As to `CCOC(=O)N1CCC(NS(=O)(=O)c2cc3c(cc2C)NC(=O)CO3)CC1`, the Potency is inactive: > 76.9 µM. Consider `Cc1ccc(C2/C(=C(\O)c3c(C)nc4ccccn34)C(=O)C(=O)N2CCCN2CCOCC2)o1` (stereo not drawn), for which the Potency was inactive: > 76.9 µM. Take `COc1ccc(C)cc1NC(=O)c1ccc(S(=O)(=O)N2CCOCC2)cc1`: the Potency is inactive: > 76.9 µM. As for `Cc1[nH]nc2c1-c1nc3ccccc3nc1C(C)(C)C2`, the Potency is inactive: > 76.9 µM.

Consider `COc1ccc(-c2cnnn2-c2ccc(NC(=O)c3ccco3)cc2)cc1OC`, for which the Potency was inactive: > 76.9 µM.

In the case of `Cc1nnc(NC(=O)CSc2nnc(-c3ccoc3C)n2CC(C)C)s1`, the Potency is inactive: > 76.9 µM.

For `O=C(Nc1cccc(NC(=O)N2CCN(c3ccccc3)CC2)c1)N1CCN(c2ccccc2)CC1`, the Potency is inactive: > 76.9 µM. As for `C=CCn1c(N)c(S(=O)(=O)c2cccs2)c2nc3ccccc3nc21`, the Potency was inactive: > 76.9 µM.

For the compound `Cc1nc(SCC(=O)Nn2c(-c3ccccc3)nc3ccccc3c2=O)n[nH]1`, the Potency was inactive: > 76.9 µM. Consider `COc1ccc(C2C(C(=O)c3ccco3)=C(O)C(=O)N2CCc2ccccc2)cc1OC` (stereo not drawn), for which the Potency was inactive: > 76.9 µM.

As for `COc1ccc(CN2CN(C(C)C)CSC2=S)cc1`, the Potency was inactive: > 76.9 µM. As for `Cc1ccc(-c2nc3ccccc3c(=O)n2CCN2CCOCC2)cc1`, the Potency is inactive: > 76.9 µM.

Take `Cc1cc(C)c(NC(=O)c2ccc(S(=O)(=O)N(C)C)cc2)c(C)n1`: the Potency was inactive: > 76.9 µM. As to `CN1CCCC(OC(=O)COc2ccc(Br)cc2)C1` (stereo not drawn), the Potency was inactive: > 76.9 µM. For `CCC(=O)N1CCN(c2ccc(NC(=O)c3ccc4c(c3)OCO4)cc2)CC1` the value was “inactive”; for `Cc1cc(C)nc(N2C(=O)CC(C(C)c3ccccc3)C2=O)n1` (stereo not drawn), inactive: > 76.9 µM; for `CCc1nnc(NC(=O)Cn2ccc(C(F)(F)F)n2)s1`, “inactive”.

`O=C(CNS(=O)(=O)c1ccc(Br)s1)N1CCN(c2ncccn2)CC1`: the Potency was inactive: > 76.9 µM. Take `COc1ccc(OC)c(NC(=O)c2cc(-c3ccc(C)cc3O)n[nH]2)c1`: the Potency is inactive: > 76.9 µM. Turning to `Clc1ccccc1OCc1nc(-c2ccccn2)no1`, the Potency was inactive: > 76.9 µM. As to `O=C(CN1C2CCC1CC(NC(=O)C1CC1)C2)NCc1ccccc1` (stereo not drawn), the Potency was inactive: > 76.9 µM. With `Cc1ccc(-c2nnn(CCC(=O)NC3CCCC3)n2)cc1`, the Potency was inactive: > 76.9 µM. On to `Cc1cc(C)nc(N2CCCC(C(=O)NC3CCCC3)C2)n1` (stereo not drawn), for which the Potency was inactive: > 76.9 µM. On to `Cc1cc(NC(=O)COc2ccccc2)n(-c2ccccc2)n1`, for which the Potency was inactive: > 76.9 µM. With `O=C(NCCc1ccccc1)C1CCN(S(=O)(=O)c2ccc(-c3nn[nH]n3)cc2)CC1`, the Potency was inactive: > 76.9 µM. For the compound `O=C(CNS(=O)(=O)c1ccc(C(=O)N2CCCCC2)cc1)N1CCCCC1`, the Potency was inactive: > 76.9 µM. For `COc1ccc2cc(CN(CCO)C(=O)c3ccccc3F)c(=O)[nH]c2c1`, the Potency is inactive: > 76.9 µM. The figure for `COC(=O)c1cc(OC)c(OC)c(OC)c1NC(=O)c1ccc(S(=O)(=O)N(C)C)cc1` is inactive: > 76.9 µM; for `COc1ccc(N(CC(=O)NC2CCCC2)C(=O)CCC(=O)Nc2cc(C)on2)c(OC)c1` it is inactive: > 76.9 µM; for `CCC1Oc2ccc(C)cc2N(CC(=O)NCc2cc(OC)ccc2OC)C1=O` (stereo not drawn) it is inactive: > 76.9 µM. As to `CN(C)CCN1C(=O)c2oc3ccccc3c(=O)c2C1c1ccc(F)cc1` (stereo not drawn), the Potency is inactive: > 76.9 µM. Take `c1ccc(-c2nc(N3CCCCCC3)c3ccccc3n2)nc1`: the Potency was inactive: > 76.9 µM.

Turning to `CC(=O)[C@@H]1[C@@H]2C(=O)N(c3ccc(F)c(Cl)c3)C(=O)[C@@H]2C2c3ccccc3C=CN21` (stereo partly drawn), the Potency is inactive: > 76.9 µM.

Consider `COc1ccc(OC)c(S(=O)(=O)N2CCC(C(=O)Nc3cccc(C(F)(F)F)c3)CC2)c1`, for which the Potency was inactive: > 76.9 µM. Turning to `C=CCNS(=O)(=O)c1ccc(OCC(=O)OCC)cc1`, the Potency is inactive: > 76.9 µM. For `COC(=O)C1(S(=O)(=O)c2ccc(C)cc2)CCOCC1`, the Potency is inactive: > 76.9 µM.

On to `COCC(=O)Nc1cccc(C(F)(F)F)c1`, for which the Potency is inactive: > 76.9 µM.

For `CC(NC(=O)C1CCN(S(=O)(=O)N2CCCCCC2)CC1)c1ccccc1` (stereo not drawn), the Potency was inactive: > 76.9 µM. For `CCOC(=O)c1[nH]c(C)c(C(=O)NCc2ccccn2)c1C`, the Potency was inactive: > 76.9 µM.

Turning to `O=C(NCc1ccc2c(c1)OCO2)c1ccc(COc2cccc(Cl)c2)o1`, the Potency is inactive: > 76.9 µM. In the case of `C=CCn1c(O)c(C(CC)=Nc2ccccc2NC(=O)CC)c(=O)[nH]c1=O`, the Potency is inactive: > 76.9 µM.

On to `O=c1c2ccccc2nc(SCc2cc(F)cc3c2OCOC3)n1Cc1ccco1`, for which the Potency is inactive: > 76.9 µM.

`Cc1cc(NS(=O)(=O)c2ccc(NC(=O)Cc3cccs3)cc2)no1`: the Potency is inactive: > 76.9 µM. For `CN(CC(=O)N1CCN(c2ccccc2)CC1)S(=O)(=O)c1cnc[nH]1` the value was inactive: > 76.9 µM. For `COc1ccc(CN(C(=O)c2ccco2)c2ccc(C)cc2)cc1OC` the value was inactive: > 76.9 µM. `CCOC(=O)Cc1[nH]nc2c1C(c1cccc(OC)c1OC)C(C#N)=C(N)O2` (stereo not drawn): the Potency was inactive: > 76.9 µM. For `CCCc1cc(=O)oc2cc(Oc3ncccn3)ccc12` the value was inactive: > 76.9 µM. The figure for `O=C(NCc1cccs1)C1CCN(S(=O)(=O)c2ccc(Br)s2)CC1` is inactive: > 76.9 µM; for `CCOC(=O)N1CCC(Nc2c(-c3ccc(C)c(C)c3)c(=O)c2=O)CC1` it is inactive: > 76.9 µM. With `CCOC(=O)CNc1c(-c2ccc(O)cc2)nc2ccc(Cl)cn12`, the Potency was active: 4.11 µM. On to `Cc1cc(-c2ccco2)c(C#N)c2nc3ccccc3n12`, for which the Potency was inactive: > 76.9 µM. `COc1ccc(C(=O)N2CCCC(c3nc(-c4cc(OC)c(OC)c(OC)c4)no3)C2)cc1` (stereo not drawn): the Potency is inactive: > 76.9 µM. For `c1coc(-c2nnc(SCc3cn4ccccc4n3)o2)c1` the value was inactive: > 76.9 µM. For `CCCCS(=O)(=O)Nc1ccc(C(=O)NCC2CCCO2)cc1` (stereo not drawn), the Potency is inactive: > 76.9 µM. For the compound `O=C(Cn1nnc(-c2ccccc2F)n1)Nc1ccc2c(c1)OCO2`, the Potency is inactive: > 76.9 µM. The figure for `CCn1c(SCC(=O)c2c(N)n(C)c(=O)n(C)c2=O)nc2sc(C)c(C)c2c1=O` is inactive: > 76.9 µM; for `O=c1c2c3c(sc2nc2sc(CN4CCOCC4)cn12)CCCC3` it is inactive: > 76.9 µM; for `CCCN1Cc2cccc(C(=O)NC3CCCC3)c2C1=O` it is inactive: > 76.9 µM. In the case of `O=C(c1ccco1)N1CCN(C(=O)c2ccc(Cn3cc(Br)cn3)o2)CC1`, the Potency was inactive: > 76.9 µM. Regarding `Cc1cc(Cl)c(S(=O)(=O)NCCC(=O)O)cc1OCC(N)=O`, the Potency was inactive: > 76.9 µM. For `Cc1ccnc(NC(=O)COc2ccc3oc4c(c3c2)CCCC4)c1` the value was inactive: > 76.9 µM; for `COc1ccc(C2C3=C(Nc4ncnn42)c2ccccc2CCC3)cc1` (stereo not drawn), inactive: > 76.9 µM; for `CC1=C(C(=O)Nc2ccccn2)C(c2ccc(N(C)C)cc2)n2ncnc2N1` (stereo not drawn), inactive: > 76.9 µM. The figure for `O=C(Nc1ccccc1)Nc1ccccn1` is inactive: > 76.9 µM. For the compound `Cc1occc1C(=O)n1cnc2ccccc21`, the Potency was inactive: > 76.9 µM. As to `CCOC(=O)C1CCCN(C(=O)c2ccc3c(=O)n(CCOC)c(=S)[nH]c3c2)C1` (stereo not drawn), the Potency is inactive: > 76.9 µM. For `Cc1ccc(N(CC(N)=O)C2SC(=O)N(C)C2=O)cc1` (stereo not drawn), the Potency is inactive: > 76.9 µM.

As to `O=C(CN(c1ccc2c(c1)OCCO2)S(=O)(=O)c1ccccc1)Nc1ccc2c(c1)OCO2`, the Potency is inactive: > 76.9 µM.

As to `O=C(CNS(=O)(=O)c1cccs1)Nc1ccc2c(c1)OCCO2`, the Potency is inactive: > 76.9 µM.

On to `CN(CCc1ccccn1)C(=O)CCNC(=O)Cn1cnc2ccccc2c1=O`, for which the Potency is inactive: > 76.9 µM. For `Cc1ccc(C(=O)N2CCC(C(N)=O)CC2)cc1C`, the Potency is inactive: > 76.9 µM.

On to `CCCCCOC(=O)Cc1c(O)c2ccccc2n(C)c1=O`, for which the Potency was inactive: > 76.9 µM.

Turning to `COC(=O)c1cccc(NC(=O)Cn2nnc3ccccc32)c1`, the Potency is inactive: > 76.9 µM. Turning to `Cc1ccc2nc(NC3=NCN(CCc4ccccc4)CN3)nc(C)c2c1`, the Potency was inactive: > 76.9 µM. For `CC(=O)Nc1ccccc1OCC(=O)c1ccc2c(c1)OCO2`, the Potency was inactive: > 76.9 µM.

Take `CN1CCN(c2nc(N3CCN(CCO)CC3)nc3ccccc23)CC1`: the Potency was inactive: > 76.9 µM. As to `COC(=O)C(C(=O)Nc1cc(C)on1)C1CCCCCC1` (stereo not drawn), the Potency was inactive: > 76.9 µM.

With `Cc1ccccc1N1CC(c2nc3ccccc3[nH]2)CC1=O` (stereo not drawn), the Potency is inactive: > 76.9 µM.

Turning to `O=C(Oc1ccc(OC(=O)c2ccncc2)cc1)c1ccncc1`, the Potency was inactive: > 76.9 µM. In the case of `O=C(O)C1CCCN1S(=O)(=O)c1ccc(Br)s1` (stereo not drawn) (tested in a mixture with another compound), the Potency is inactive: > 76.9 µM.
